The assay concerns 349418-098-R-PDC complex spheroid viability. As to the kind of experiment: Anticancer human tumor 349418-098-R-PDC patient-derived lung adenocarcinoma cell line growth inhibition [RAS]. The settings on record: for IC50: compound alone; for viability, T/C: stronger effect = lower value. The source says:
RAS pathway inhibitors in Combinations in Complex Spheroids
A high-throughput screen of multi-cell type tumor spheroids was designed to identify active combinations of RAS pathway inhibitors and targeted small molecules. Complex spheroids include a stromal component modeled by human endothelial cells (HUVEC) and fibroblasts modeled by human mesenchymal stem cells (MSCs). The concentration ranges selected for each drug and investigational agent were based upon clinically achievable concentrations if the clinical Cmax of the agent was known.
Compounds. The drugs and investigational agents: abemaciclib (NSC768073), cobimetinib (NSC768068), divarasib (GDC6063, NSC841802), docetaxel (NSC628503), GDC-1971 (RLY-1971, NSC841576), gemcitabine (NSC613327), inavolisib (NSC800729), ipatasertib (NSC767898), KB-0742 (NSC834161), MRTX-1133 (NSC836407), osimertinib (NSC779217), RMC-4630 (NSC839698), RMC-6236 (NSC851965), RMC-6291 (NSC852671), Ro-3306 (NSC812927), sapanisertib (NSC764658), SN-38 (NSC673596), staurosporine (NSC755774), SY5609 (NSC837396), and tovorafenib (DAY101, NSC766906), were obtained from the National Cancer Institute (NCI) Developmental Therapeutics Program Chemical Repository. The FDA-approved anticancer drug set is available from the NCI Developmental Therapeutics Program. […] The stock solutions were prepared in dimethyl sulfoxide (DMSO, Sigma-Aldrich, St. Louis, MO, cat. D2650) at 800-fold the tested concentration and stored at -70 degrees C prior to their use. All drugs and investigational agents were tested over a range starting from a high concentration at or near the clinical Cmax and decreasing in half-log increments. If the clinical Cmax for an agent had not been determined, the highest concentration tested was 10 microM.
Cell Culture. All cells were maintained in an incubator at 37 degrees C and 5% CO2 with 95% humidity. The PDC lines were cultured according to standard operating procedures established by the NCI PDMR. All PDCs were thawed and cultured in Matrigel-coated flasks prepared with a working solution of 1X Ham's F-12 nutrient mix, without supplementation (Invitrogen, Waltham, MA, cat. 11765054), 100 U/mL penicillin-streptomycin (Invitrogen, cat. 15140122), and 2.5% Matrigel (Corning Inc., Corning, NY, cat. 354248) for the first three passages. The 362531-283-R-J2-PDC and 782815-120-R-J1-PDC lines were cultured in 6C/Colon 1B media, which includes advanced DMEM/F-12 (Thermo Fisher Scientific, cat. 12634028), 10 mM HEPES (Thermo Fisher Scientific, cat. 15630080), 1X GlutaMAX supplement (Thermo Fisher Scientific, cat. 35050061), 0.1 mg/mL primocin (InvivoGen, San Diego, CA, cat. ant-pm-2), 10% defined fetal bovine serum, heat inactivated (HyClone Laboratories Inc., Logan, UT, cat. SH30070.03HI), 50% L-WRN conditioned media (ATCC, cat. CRL-3276), 1.25 mM N-Acetyl-L-cysteine (Sigma-Aldrich, cat. A9165), 10 mM nicotinamide (Sigma-Aldrich, cat. N0636), 1X B-27 supplement (Thermo Fisher Scientific, cat. 17504044), 1X N-2 supplement (Thermo Fisher Scientific, cat. 17502048), 50 ng/mL human EGF (Thermo Fisher Scientific, cat. PHG0311), and 10 microM Y-27632 dihydrochloride (Tocris Bioscience, cat. 1254). The K12877-001-R-J1-PDC line was cultured in 6I media, which includes all 6C/Colon 1B media plus 10 ng/mL human FGF-10 (PeproTech, cat. 100-26), 1 ng/mL human FGF-2 (PeproTech, cat. 100-18B), 1 µM prostaglandin E2 (Tocris Bioscience, cat. 2296), […] hydrocortisone (Sigma-Aldrich, cat. H4001), and […] bovine insulin (Sigma-Aldrich, cat. I6634). The K86415-001-R-J1-PDC line was cultured in 6D media, which includes all 6C/Colon 1B media components minus the L-WRN conditioned media. The 485176-168-R4-J1-PDC was cultured in PANC media, which includes all 6C/Colon 1B media plus 100 ng/mL human FGF-10 (PeproTech, cat. 100-26), 500 nM SB-431542 (Selleckchem, cat. S1067), and 10 nM gastrin (Tocris Bioscience, cat. 3006). […]

The source holds more than one record for some entries. This is not the full list of results. An entry can have further records. Results that share an entry are repeated measurements across runs, samples, wells, individuals or studies. Additions like (4×) say how often a value occurs here. Dates in brackets are months of testing.
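Note: spheroids exposed to compound for seven days before viability readout.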

With `CCN1CCN(Cc2ccc(Nc3ncc(F)c(-c4cc(F)c5nc(C)n(C(C)C)c5c4)n3)nc2)CC1`, the IC50 (in general, the concentration that gives 50% inhibition) was 8.39 nM, 13.6 nM [2024-05] and 31.3 nM, 36.1 nM [2024-06]. Besides, the viability, T/C (compound alone 0.00316 µM) is 77.4%, 95.8% [2024-05] and 84.3%, 61.5% [2024-06]. The viability, T/C (compound alone 0.0316 µM) was 27.2%, 38.4% [2024-05] and 58.9%, 52.8% [2024-06].
Turning to `CCn1c(-c2cc(N3CCN(C)CC3)cnc2C(C)OC)c2c3cc(ccc31)-c1csc(n1)CC(NC(=O)C1CC1C)C(=O)N1CCCC(N1)C(=O)OCC(C)(C)C2` (stereo not drawn), the viability, T/C is, setting by setting: (compound alone 0.00949 µM) 102, 99.5, 84.5, 111, 108, 109, 92.9, 100%; (compound alone 0.3 µM) 108, 114, 104, 130, 111 (2×), 116, 105%.
Take `CCn1c(-c2cccnc2C(C)OC)c2c3cc(ccc31)N1CCOC(CC(NC(=O)C(C(C)C)N(C)C(=O)C3(F)CCN(C(=O)C#CC(C)(C)N(C)C)CC3)C(=O)N3CCCC(N3)C(=O)OCC(C)(C)C2)C1` (stereo not drawn): the viability, T/C is 99.5, 115, 105, 93.6, 123, 107, 99, 110% (compound alone 0.000949 µM); 119 (2×), 118, 108, 88.3, 113, 124, 100% (compound alone 0.00949 µM); 94.5, 113, 90.2, 109, 102, 103, 121, 92.6% (compound alone 0.03 µM); 102, 111, 86, 99.5, 105, 116, 88.3, 96.4% (compound alone 0.0949 µM); 113, 101, 90.1, 94.2, 105, 78, 108, 94.7% (compound alone 0.3 µM).
Regarding `CC(C)n1nc(-c2ccc3oc(N)nc3c2)c2c(N)ncnc21`, the viability, T/C (compound alone 0.000316 µM) was 97.7%, 104% [2024-05] and 95.5%, 72.7% [2024-06]; the viability, T/C (compound alone 0.001 µM) was 56.2%, 73.4% [2024-05] and 83.6%, 57.8% [2024-06].
`CC(Nc1ccc2c(c1)OCCn1cc(N3C(=O)OCC3C(F)F)nc1-2)C(N)=O` (stereo not drawn): the IC50 was 186 nM, 96.9 nM [2024-05] and 49.2 nM, 75.1 nM [2024-06]. Also, the viability, T/C (compound alone 3.16 µM) was 89.9%, 21.8% [2024-05] and 11.1%, 13.9% [2024-06].
Take `NC1c2ccccc2OC12CCN(c1cnc3c(N4CCCc5ncccc54)n[nH]c3n1)CC2` (stereo not drawn): the viability, T/C (compound alone 0.1 µM) is 78.9%, 85.9% [2024-05] and 98.7%, 64.9% [2024-06]; the viability, T/C (compound alone 0.316 µM) is 108%, 105% [2024-05] and 99.5%, 73% [2024-06]; the viability, T/C (compound alone 1 µM) is 97.5%, 86.8% [2024-05] and 55.4%, 83.8% [2024-06].
Regarding `C#Cc1c(F)ccc2cc(O)cc(-c3ncc4c(N5CC6CCC(C5)N6)nc(OCC56CCCN5CC(F)C6)nc4c3F)c12` (stereo not drawn), the viability, T/C is listed as 95, 96.9, 89.9, 94.5, 87.3, 107, 96.1, 114% (compound alone 0.1 µM); 94, 97.5, 102, 91.5, 79.1, 88, 113, 101% (compound alone 0.316 µM); 90.9, 92.9, 105, 95.3, 112, 92.8, 102, 84.1% (compound alone 1 µM); 80.7, 86.4, 102, 93.9, 89.3, 71.8, 92.9, 90.9% (compound alone 3.16 µM).
Turning to `CC(C)NCC(C(=O)N1CCN(c2ncnc3c2C(C)CC3O)CC1)c1ccc(Cl)cc1` (stereo not drawn), where the note is “compound alone 0.0316 µM”, the viability, T/C was 102%, 106% [2024-05] and 67.1%, 101% [2024-06].
Turning to `C=CC(=O)Nc1cc(Nc2nccc(-c3cn(C)c4ccccc34)n2)c(OC)cc1N(C)CCN(C)C`, the viability, T/C is 71.9%, 85.1% [2024-05] and 98.5%, 67.3% [2024-06] (compound alone 0.01 µM); 107%, 103% [2024-05] and 81.6%, 83.5% [2024-06] (compound alone 0.0316 µM); 109%, 99.4% [2024-05] and 88.8%, 80.5% [2024-06] (compound alone 0.1 µM).
Regarding `C=CC(=O)N1CCN(c2nc(OCC3CCCN3C)nc3c(F)c(-c4nc(N)cc(C)c4C(F)(F)F)c(Cl)cc23)C(C)C1` (stereo not drawn), the viability, T/C runs as follows: (compound alone 0.00316 µM) 107%, 95.2% [2024-05] and 64.3, 88.9, 106 (2×), 81.7, 88.8, 68.7, 94.9, 96.5, 79.1% [2024-06]; (compound alone 0.01 µM) 100%, 89.3% [2024-05] and 76.9, 100, 95.6, 88.5, 87.5, 76.4, 92, 89.8, 84.5, 107% [2024-06]; (compound alone 0.0316 µM) 106%, 104% [2024-05] and 93.7 (2×), 99.3, 106, 99.5, 119 (2×), 110, 89.7, 92.1% [2024-06].
`C[C@@H](NC(=O)c1ncnc(N)c1Cl)c1ncc(C(=O)Nc2cc(C(F)(F)F)c(Cl)cn2)s1`: the viability, T/C is, setting by setting: (compound alone 0.0316 µM) 91.7%, 106% [2024-05] and 74.7%, 85% [2024-06]; (compound alone 3.16 µM) 29.9%, 36.5% [2024-05] and 56.3%, 45.2% [2024-06].
Take `CCC(CC)c1cc(NC2CCC(N)C2)n2nccc2n1` (stereo not drawn): the viability, T/C reads like this: (compound alone 0.1 µM) 106%, 99.3% [2024-05] and 95.6%, 126% [2024-06]; (compound alone 0.316 µM) 70.3%, 78.8% [2024-05] and 95.7%, 66.4% [2024-06].
With `Cc1nc(N2CCC3(CC2)COC(C)C3N)c(CO)nc1Sc1ccnc(N)c1Cl` (stereo not drawn), under “compound alone 1 µM”, the viability, T/C is 94.4%, 108% [2024-05] and 88.8%, 75.1% [2024-06].

The values above are taken from PubChem BioAssay AID2060904 (Molecular Pharmacology Branch, DTP, NCI, 2025).
